Assay results published in PubChem BioAssay AID1030 (National Center for Advancing Translational Sciences (NCATS), 2008).
Hit rate of the full screen: of about 220,000 compounds, about 16,000 (7.3%) were called active. The shares of active, inactive and inconclusive entries below differ from those in the screen. Calls come from the whole dose curve; as a rule, active = well fitted inhibition curve with a large enough effect (not every such curve was filed as active); inconclusive = small, poorly fitted or top-dose-only effect, or another doubt; inactive = no such curve, though single readings can be large or run the other way. Potencies of inconclusive entries are left out as doubtful fits.

The compounds below were run against Aldehyde dehydrogenase 1A1 (Homo sapiens) (UniProt P00352) (assay: qHTS Assay for Inhibitors of Aldehyde Dehydrogenase 1 (ALDH1A1)). Details: Purified ALDH1A1, NADH fluorescence, propionaldehyde substrate; series mostly up to 75.3 µM.
UniProt P00352, sequence (P00352 whole entry, looked up): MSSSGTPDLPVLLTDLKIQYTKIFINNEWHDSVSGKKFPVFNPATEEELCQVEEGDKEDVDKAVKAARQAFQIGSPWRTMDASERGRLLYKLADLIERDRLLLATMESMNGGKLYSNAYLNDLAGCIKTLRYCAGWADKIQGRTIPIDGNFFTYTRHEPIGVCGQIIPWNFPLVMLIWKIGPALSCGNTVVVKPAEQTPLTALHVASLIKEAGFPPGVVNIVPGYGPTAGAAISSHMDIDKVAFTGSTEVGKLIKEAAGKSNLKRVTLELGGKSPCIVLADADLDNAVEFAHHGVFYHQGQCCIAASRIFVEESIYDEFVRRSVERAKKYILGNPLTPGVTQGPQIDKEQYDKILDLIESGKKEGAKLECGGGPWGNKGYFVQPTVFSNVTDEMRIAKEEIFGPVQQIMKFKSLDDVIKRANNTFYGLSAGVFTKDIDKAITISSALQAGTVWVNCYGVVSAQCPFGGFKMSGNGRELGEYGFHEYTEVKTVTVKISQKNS
Potency is the fitted concentration of half-maximal effect; tags give direction and shape of the fitted curve.

Compound	Potency
Cc1ccc(/C=c2\sc3n(c2=O)CN(c2cccc(Br)c2)CN=3)o1	active: 20 µM
O=C(COc1ccccc1Cl)Nc1ccc(C(=O)c2ccc(C(=O)O)cc2)cc1	inconclusive [inhibitor, single point]
O=C(NCc1ccc2c(c1)OCO2)c1nnc(Cc2ccc(Cl)cc2)o1	inactive
CC(C)c1ccc2oc(-c3ccc(NC(=O)c4ncn[nH]4)cc3)nc2c1	inconclusive [inhibitor, partial curve]
Cc1ccc(-n2c(Cc3cccn3C)nnc2SCC(=O)Nc2ccc3c(c2)OCO3)cc1	inconclusive [inhibitor, single point]
COc1ccc(CCNC(=O)CCn2cccc2)cc1OC	inactive
Cc1cc(/C=c2/sc3nc4ccccc4n3c2=O)c(C)n1-c1ccccn1	active: 12.6 µM
CSc1ccccc1NC(=O)c1cnc2scc(C)n2c1=O	inconclusive [inhibitor, single point]
CC(C)c1nc(CNC(=O)CCc2nnc(-c3ccsc3)o2)cs1	inconclusive [inhibitor, single point]
CCOc1ccccc1Nc1nnc(SCc2ccc(C(=O)OC)o2)s1	inconclusive [inhibitor, single point]
CCN(CC)CCNC(=O)c1cc(-c2ccco2)nc2ccccc12	inconclusive [inhibitor, partial curve]
CCc1cccc2c(C(=O)Cn3nnc(-c4ccc(OC)c(OC)c4)n3)c[nH]c12	inconclusive [inhibitor, partial curve]
CC12CCC(C(=O)Nc3cccc4ccccc34)(C1Br)C2(C)C (stereo not drawn)	inactive
NC(=S)NNC(=O)c1cccc(Br)c1	inactive
CCOC(=O)c1nn(-c2ccccc2)c(=O)c2c(NC(C)=O)scc12	inconclusive [inhibitor, single point]
COC(=O)c1cc(NS(=O)(=O)c2ccc(N3CCCCC3)c([N+](=O)[O-])c2)cc(C(=O)OC)c1	inconclusive [inhibitor, partial curve]
Cc1ccc(S(=O)(=O)ON2C(=O)c3cccc4cccc(c34)C2=O)cc1	inconclusive [inhibitor, partial curve]
O=C(O)/C=C/c1cnn(-c2ccccc2)c1	inactive
O=C(CCCc1cccs1)Nc1ccc2c(c1)OCO2	inactive
O=C(NO)c1ccccc1O	inactive
COc1ccc(-c2oc3cc(OC)c(OC(C)=O)c(OC)c3c(=O)c2OC)cc1OC(C)=O	inconclusive [inhibitor, single point]
Cc1cccc(NC(=S)NC2CCCCC2)n1	inconclusive [inhibitor, single point]
CCn1c(=O)c([N+](=O)[O-])c(NCCc2ccc(OC)c(OC)c2)c2ccccc21	active: 14.1 µM
CC(C)Cn1c2c(c(O)c(C(=O)Nc3ncccc3O)c1=O)CCCC2	active: 7.94 µM

Compound	Potency
O=C1CC(c2ccco2)Cc2nc(N3CCN(Cc4ccc5c(c4)OCO5)CC3)ncc21 (stereo not drawn)	active: 17.8 µM
C#CCOC(=O)Nc1ccc(=O)n(Cc2c(Cl)cccc2Cl)c1	inconclusive [inhibitor, single point]
C=CCc1cccc2cc(C(=O)NC3=C(C#N)CCC3)c(=O)oc12	active: 0.891 µM
CCC(=O)Nc1cc(C)c(NC(=O)c2ccco2)cn1	inconclusive [inhibitor, single point]
COC(=O)c1cc(S(=O)(=O)N2CCC(C)CC2)ccc1F	active: 28.2 µM
Cn1c(=NC(=O)COc2ccccc2)sc2ccccc21	inactive
CC1CCCN(CCCNC(=O)c2coc3nc4ccccc4nc23)C1 (stereo not drawn)	inconclusive [inhibitor, partial curve]
COc1cc(-c2nnc(-c3cc(OC)c(OC)c(OC)c3)o2)cc(OC)c1OC	inconclusive [inhibitor, partial curve]
COCCC(=O)NNS(=O)(=O)c1ccc(Cl)cc1	inactive
Cc1ccc(/C=C2\CCCC3=C2NC(=S)NC3c2ccc(C)cc2)cc1 (stereo not drawn)	inconclusive [inhibitor, full curve]
COc1cc(CCC(=O)OCC(=O)NCc2ccc(Cl)cc2)cc(OC)c1OC	inconclusive [inhibitor, partial curve, poor fit]
Cc1ccc(NC2=NCC(=O)N2Cc2cccs2)cc1C	inconclusive [inhibitor, single point]
CN1CCN(c2ncc3nc(-c4ccccc4)c(=O)n(-c4ccccc4)c3n2)CC1	inconclusive [inhibitor, partial curve]
CC(=O)Nc1ccc2sc(C)nc2c1	inactive
COC(=O)CNC(=O)COC(=O)C(Cc1ccccc1)NC(=O)c1ccco1 (stereo not drawn)	inconclusive [inhibitor, single point]
Cn1c(=O)[nH]c2nc[nH]c2c1=O	inactive
CC(=O)NC(Cc1cccc(F)c1)C(=O)NC1CCN(C(=O)c2ccc(C)cc2)CC1 (stereo not drawn)	active: 14.1 µM
O=C(NNC(=S)NC1CC2C=CC1C2)c1cccnc1 (stereo not drawn)	inactive
O/N=C/c1ccccc1Oc1ccccc1	inconclusive [inhibitor, single point]
O=C(Nc1cccc(S(=O)(=O)N2CCCC2)c1)c1cc(-c2ccccn2)nc2ccccc12	inactive
O=C1C2C3C=CC(C3)C2C(=O)N1c1ccc(N2CCN(c3ccccn3)CC2)c([N+](=O)[O-])c1 (stereo not drawn)	inconclusive [inhibitor, single point]
O=c1c(-c2ccccc2)coc2c(CN3CCOCC3)c(O)ccc12	inconclusive [inhibitor, partial curve]
CCC1Oc2ccc(C)cc2N(CC(=O)N(Cc2cccnc2)Cc2cccc(F)c2)C1=O (stereo not drawn)	inconclusive [inhibitor, single point]
CCNC(=S)N(CCN(C)C)Cc1cc2cc(OCC)ccc2[nH]c1=O	inconclusive [inhibitor, partial curve]
